According to the supplement of paper PMC4967469:
A lower IC50 marks a more sensitive line; fits outside the tested doses are given as limits. AUC is the area under the same curve over the 256-fold range up to the top dose, as a fraction; values near 1 show little effect. For some assays here: A top dose marked as inferred is not printed in the source and was worked back from the curve model.

What was measured:
Experiment in all cases: Viability of human cancer cell lines after 72 h of drug (GDSC screen)
[1] = compound: COc1cc(N2CCN(C)CC2)ccc1Nc1nc(N)c(C(=O)c2c(Cl)cccc2Cl)s1 [XMD14-99]; conditions: top dose 10.24 µM; top dose inferred
Procedure: (§1)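 Human cancer cell lines in 384-well plates, medium with 10% serum, drug for 72 h over a 256-fold dose range (nine 2-fold or five 4-fold steps up to the top dose). Adherent lines were fixed and stained with the nucleic acid dye Syto60, suspension lines read with resazurin; signal relative to control wells, capped at 0 and 100%. One two-parameter sigmoid per drug and line, fitted in a mixed model over all curves with the slope shared within a line.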

[2] = compound: Cc1n[nH]c2ccc(-c3cncc(OC[C@@H](N)Cc4c[nH]c5ccccc45)c3)cc12 [A-443654]; conditions: top dose 1.024 µM; top dose inferred
Procedure: as §1

[3] = compound: O=C(NC1CCNCC1)c1n[nH]cc1NC(=O)c1c(Cl)cccc1Cl [AT-7519]; conditions: top dose 10.24 µM; top dose inferred
Procedure: as §1

[4] = compound: Cc1nc(Nc2ncc(C(=O)Nc3c(C)cccc3Cl)s2)cc(N2CCN(CCO)CC2)n1 [Dasatinib]; conditions: top dose 1.28 µM
Procedure: as §1

[5] = compound: Cc1cc([N+](=O)[O-])ccc1NS(=O)(=O)c1cc(Cl)ccc1Cl [FH535]; conditions: top dose 32 µM; top dose inferred
Procedure: as §1

| Cell Line | AUC [1] | IC50 [1] | AUC [2] | IC50 [2] | AUC [3] | IC50 [3] | AUC [4] | IC50 [4] | AUC [5] | IC50 [5] |
| --- | --- | --- | --- | --- | --- | --- | --- | --- | --- | --- |
| LOUCY (T-cell lymphoblastic leukaemia, suspension) | 0.92 | > 10.2 µM | 0.646 | 0.149 µM | 0.039 | < 0.04 µM | 0.992 | > 1.28 µM | 0.693 | 6.16 µM |
| LOXIMVI (melanoma, semi-adherent) | 0.989 | > 10.2 µM | 0.854 | 0.674 µM | 0.663 | 1.72 µM | 0.748 | 0.373 µM | 0.787 | 12.3 µM |
| LU-65 (large cell lung carcinoma, suspension) | 0.985 | > 10.2 µM | 0.859 | > 1.02 µM | 0.601 | 1.27 µM | 0.986 | > 1.28 µM | 0.876 | > 32 µM |
| LU-165 (small cell lung carcinoma, suspension) | 0.988 | > 10.2 µM | 0.828 | 0.742 µM | 0.737 | 3.34 µM | 0.987 | > 1.28 µM | 0.882 | > 32 µM |
| LXF-289 (lung adenocarcinoma, adherent) | 0.974 | > 10.2 µM | 0.638 | 0.153 µM | 0.559 | 0.924 µM | 0.385 | 0.0388 µM | 0.604 | 3.83 µM |
| MC-CAR (haematopoietic neoplasm, suspension) | 0.952 | > 10.2 µM | 0.914 | > 1.02 µM | 0.483 | 0.577 µM | 0.915 | > 1.28 µM | 0.707 | 7.12 µM |
| MDST8 (large intestine, adherent) | 0.983 | > 10.2 µM | 0.941 | > 1.02 µM | 0.882 | > 10.2 µM | 0.977 | > 1.28 µM | 0.943 | > 32 µM |
| MEG-01 (chronic myeloid leukaemia, suspension) | 0.982 | > 10.2 µM | 0.885 | 1.01 µM | 0.746 | 3.1 µM | 0.028 | < 0.005 µM | 0.831 | 18.6 µM |
| MFH-ino (soft tissue, adherent) | 0.979 | > 10.2 µM | 0.638 | 0.166 µM | 0.839 | 8.84 µM | 0.423 |  | 0.322 | 0.581 µM |
| MFM-223 (breast, adherent) | 0.978 | > 10.2 µM | 0.829 | 0.626 µM | 0.935 | > 10.2 µM | 0.988 | > 1.28 µM | 0.898 | > 32 µM |
| ML-2 (acute myeloid leukaemia, suspension) | 0.953 | > 10.2 µM | 0.671 | 0.181 µM | 0.293 | 0.181 µM | 0.988 | > 1.28 µM | 0.719 | 7.67 µM |
| MMAC-SF (melanoma, adherent) | 0.987 | > 10.2 µM | 0.872 | > 1.02 µM | 0.894 | > 10.2 µM | 0.954 | > 1.28 µM | 0.567 | 3.07 µM |
| MOLM-13 (acute myeloid leukaemia, suspension) | 0.858 | 7.56 µM | 0.525 | 0.0746 µM | 0.216 | 0.101 µM | 0.806 | 0.603 µM | 0.685 | 6.35 µM |
| MOLP-8 (myeloma, suspension) | 0.893 | > 10.2 µM | 0.393 | 0.0329 µM | 0.243 | 0.12 µM | 0.858 | 0.986 µM | 0.74 | 9.42 µM |
| MOLT-4 (lymphoblastic leukaemia, suspension) | 0.963 | > 10.2 µM | 0.598 | 0.113 µM | 0.262 | 0.158 µM | 0.897 | 1.06 µM | 0.786 | 11.1 µM |
| MRK-nu-1 (breast, suspension) | 0.99 | > 10.2 µM | 0.579 | 0.103 µM | 0.941 | > 10.2 µM | 0.971 | > 1.28 µM | 0.557 | 2.83 µM |
| MS-1 (small cell lung carcinoma, suspension) | 0.983 | > 10.2 µM | 0.901 | > 1.02 µM | 0.875 | 8.24 µM | 0.989 | > 1.28 µM | 0.842 | 19.1 µM |
| MSTO-211H (mesothelioma, adherent) | 0.991 | > 10.2 µM | 0.986 | > 1.02 µM | 0.875 | 8.45 µM | 0.973 | > 1.28 µM | 0.854 | 21.6 µM |
| MZ1-PC (pancreas, adherent) | 0.911 | > 10.2 µM | 0.544 | 0.087 µM | 0.481 | 0.561 µM | 0.397 | 0.0388 µM | 0.694 | 8.04 µM |
| MZ7-mel (melanoma, adherent) | 0.946 | > 10.2 µM | 0.744 | 0.33 µM | 0.596 | 1.19 µM | 0.697 | 0.292 µM | 0.527 | 2.38 µM |
| Mo-T (hairy cell leukaemia, suspension) | 0.926 | > 10.2 µM | 0.976 | > 1.02 µM | 0.609 | 1.29 µM | 0.987 | > 1.28 µM | 0.888 | > 32 µM |
| NALM-6 (B-cell leukaemia, suspension) | 0.86 | 6.44 µM | 0.613 | 0.124 µM | 0.237 | 0.131 µM | 0.645 | 0.187 µM | 0.692 | 6.22 µM |
| NAMALWA (Burkitt lymphoma, suspension) | 0.97 | > 10.2 µM | 0.581 | 0.103 µM | 0.315 | 0.214 µM | 0.735 | 0.327 µM | 0.689 | 6.14 µM |
| NB6 (neuroblastoma, adherent) | 0.965 | > 10.2 µM | 0.798 | 0.621 µM | 0.734 | 3.54 µM | 0.82 | 0.968 µM | 0.771 | 15.2 µM |
